# The supplement of paper PMC8728848
# This is one part of the list.
# B1: FliC (Pseudomonas aeruginosa), P72151 (protein)
# chain: MALTVNTNIASLNTQRNLNASSNDLNTSLQRLTTGYRINSAKDDAAGLQISNRLSNQISGLNVATRNANDGISLAQTAEGALQQSTNILQRIRDLALQSANGSNSDADRAALQKEVAAQQAELTRISDTTTFGGRKLLDGSFGTTSFQVGSNAYETIDISLQNASASAIGSYQVGSNGAGTVASVAGTATASGIASGTVNLVGGGQVKNIAIAAGDSAKAIAEKMDGAIPNLSARARTVFTADVSGVTGGSLNFDVTVGSNTVSLAGVTSTQDLADQLNSNSSKLGITASINDKGVLTITSATGENVKFGAQTGTATAGQVAVKVQGSDGKFEAAAKNVVAAGTAATTTIVTGYVQLNSPTAYSVSGTGTQASQVFGNASAAQKSSVASVDISTADGAQNAIAVVDNALAAIDAQRADLGAVQNRFKNTIDNLTNISENATNARSRIKDTDFAAETAALSKNQVLQQAGTAILAQANQLPQAVLSLLR
# Legend:
# Assay in all cases: glycan array binding signal (z-score within array); higher = stronger binding
# Settings in all cases: glycan notation: IUPAC condensed, linker removed
# [1] = target: GalNAc(b1-4)GlcNAc(b1-2)Man
# How it was run: (§1)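 Glycan array binding is given as a within-array Z-score, which can be read as non-binding when negative. The arrays, 3228 of them, came from the Consortium for Functional Glycomics database and were retained only where the protein sequence was available. Z-scores were averaged across arrays of the same protein sequence at different concentrations or buffers and across linkers.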
# [2] = target: GalNAc(b1-4)GlcNAc(b1-2)Man(a1-3)[GalNAc(b1-4)GlcNAc(b1-2)Man(a1-6)]Man(b1-4)GlcNAc(b1-4)GlcNAc
# How it was run: as §1
# [3] = target: GalNAc(b1-4)GlcNAc(b1-3)GalNAc(b1-4)GlcNAc
# How it was run: as §1
# [4] = target: GalNAc(b1-4)GlcNAc6S
# How it was run: as §1
# [5] = target: GalNAc(b1-6)GalNAc
# How it was run: as §1
# [6] = target: GalNAc3S(b1-4)GlcNAc
# How it was run: as §1
# [7] = target: GalNAc3S(b1-4)GlcNAc3S
# How it was run: as §1
# [8] = target: GalNAc3S(b1-4)[Fuc(a1-3)]GlcNAc
# How it was run: as §1
# [9] = target: GalNAc4S6S(b1-4)GlcNAc
# How it was run: as §1
# [10] = target: GalNAc6S(b1-4)GlcNAc
# How it was run: as §1
# [11] = target: Glc(a1-4)Glc
# How it was run: as §1
# [12] = target: Glc(a1-4)Glc(a1-4)Glc(a1-4)Glc
# How it was run: as §1
# [13] = target: Glc(a1-6)Glc(a1-6)Glc
# How it was run: as §1
# [14] = target: Glc(a1-6)Glc(a1-6)Glc(a1-6)Glc
# How it was run: as §1
# [15] = target: Glc(b1-4)Glc
# How it was run: as §1
# [16] = target: Glc(b1-6)Glc
# How it was run: as §1
# [17] = target: GlcA(b1-3)Gal
# How it was run: as §1
# [18] = target: GlcA(b1-3)GlcNAc
# How it was run: as §1
# [19] = target: GlcA(b1-6)Gal
# How it was run: as §1
# [20] = target: GlcA3S(b1-3)Gal(b1-4)GlcNAc(b1-2)Man
# How it was run: as §1
# [21] = target: GlcA3S(b1-3)Gal(b1-4)GlcNAc(b1-3)Gal(b1-4)Glc
# How it was run: as §1
# [22] = target: GlcNAc(a1-3)Gal(b1-4)GlcNAc
# How it was run: as §1
# [23] = target: GlcNAc(a1-4)Gal(b1-3)GlcNAc
# How it was run: as §1
# [24] = target: GlcNAc(a1-4)Gal(b1-4)GalNAc
# How it was run: as §1
# [25] = target: GlcNAc(a1-4)Gal(b1-4)GlcNAc
# How it was run: as §1
# [26] = target: GlcNAc(a1-4)Gal(b1-4)GlcNAc(b1-3)Gal(b1-4)Glc
# How it was run: as §1
# [27] = target: GlcNAc(a1-4)Gal(b1-4)GlcNAc(b1-3)Gal(b1-4)GlcNAc
# How it was run: as §1
# [28] = target: GlcNAc(a1-4)Gal(b1-4)GlcNAc(b1-3)Gal(b1-4)GlcNAc(b1-3)Gal(b1-4)GlcNAc
# How it was run: as §1
# [29] = target: GlcNAc(a1-4)Gal(b1-4)GlcNAc(b1-3)Gal(b1-4)[Fuc(a1-3)]GlcNAc(b1-3)Gal(b1-4)[Fuc(a1-3)]GlcNAc
# How it was run: as §1
# [30] = target: GlcNAc(a1-6)Gal(b1-4)GlcNAc
# How it was run: as §1
# [31] = target: GlcNAc(b1-2)Gal(b1-3)GalNAc
# How it was run: as §1
# [32] = target: GlcNAc(b1-2)Man(a1-3)[GlcNAc(b1-2)Man(a1-6)]Man(b1-4)GlcNAc(b1-4)GlcNAc
# How it was run: as §1
# [33] = target: GlcNAc(b1-2)Man(a1-3)[GlcNAc(b1-2)Man(a1-6)]Man(b1-4)GlcNAc(b1-4)[Fuc(a1-6)]GlcNAc
# How it was run: as §1
# [34] = target: GlcNAc(b1-2)Man(a1-3)[GlcNAc(b1-4)][GlcNAc(b1-2)Man(a1-6)]Man(b1-4)GlcNAc(b1-4)GlcNAc
# How it was run: as §1
# [35] = target: GlcNAc(b1-2)Man(a1-3)[GlcNAc(b1-4)][GlcNAc(b1-2)Man(a1-6)]Man(b1-4)GlcNAc(b1-4)[Fuc(a1-6)]GlcNAc
# How it was run: as §1
# [36] = target: GlcNAc(b1-2)[GlcNAc(b1-4)]Man(a1-3)[GlcNAc(b1-2)Man(a1-6)]Man(b1-4)GlcNAc(b1-4)GlcNAc
# How it was run: as §1
# [37] = target: GlcNAc(b1-2)[GlcNAc(b1-4)]Man(a1-3)[GlcNAc(b1-4)][GlcNAc(b1-2)Man(a1-6)]Man(b1-4)GlcNAc(b1-4)GlcNAc
# How it was run: as §1
# [38] = target: GlcNAc(b1-2)[GlcNAc(b1-4)]Man(a1-3)[GlcNAc(b1-4)][GlcNAc(b1-2)[GlcNAc(b1-6)]Man(a1-6)]Man(b1-4)GlcNAc(b1-4)GlcNAc
# How it was run: as §1
# [39] = target: GlcNAc(b1-2)[GlcNAc(b1-4)]Man(a1-3)[GlcNAc(b1-4)][GlcNAc(b1-2)[GlcNAc(b1-6)]Man(a1-6)]Man(b1-4)GlcNAc(b1-4)[Fuc(a1-6)]GlcNAc
# How it was run: as §1
# [40] = target: GlcNAc(b1-2)[GlcNAc(b1-6)]Man(a1-6)[GlcNAc(b1-2)Man(a1-3)]Man(b1-4)GlcNAc(b1-4)GlcNAc
# How it was run: as §1
# [41] = target: GlcNAc(b1-2)[GlcNAc(b1-6)]Man(a1-6)[GlcNAc(b1-2)Man(a1-3)]Man(b1-4)GlcNAc(b1-4)[Fuc(a1-6)]GlcNAc
# How it was run: as §1
# [42] = target: GlcNAc(b1-2)[GlcNAc(b1-6)]Man(a1-6)[GlcNAc(b1-4)][GlcNAc(b1-2)Man(a1-3)]Man(b1-4)GlcNAc(b1-4)GlcNAc
# How it was run: as §1
# [43] = target: GlcNAc(b1-3)Fuc
# How it was run: as §1
# [44] = target: GlcNAc(b1-3)Gal
# How it was run: as §1
# [45] = target: GlcNAc(b1-3)Gal(b1-3)GalNAc
# How it was run: as §1
binder,measurement,setting,value
B1,glycan array binding signal (z-score),[1],-0.198
same,glycan array binding signal (z-score),[2],0.194
same,glycan array binding signal (z-score),[3],-0.215
same,glycan array binding signal (z-score),[4],-0.207
same,glycan array binding signal (z-score),[5],-0.182
same,glycan array binding signal (z-score),[6],-0.135
same,glycan array binding signal (z-score),[7],0.303
same,glycan array binding signal (z-score),[8],-0.192
same,glycan array binding signal (z-score),[9],0.021
same,glycan array binding signal (z-score),[10],-0.203
same,glycan array binding signal (z-score),[11],-0.187
same,glycan array binding signal (z-score),[12],0.297
same,glycan array binding signal (z-score),[13],-0.231
same,glycan array binding signal (z-score),[14],-0.13
same,glycan array binding signal (z-score),[15],-0.17
same,glycan array binding signal (z-score),[16],-0.164
same,glycan array binding signal (z-score),[17],-0.112
same,glycan array binding signal (z-score),[18],-0.17
same,glycan array binding signal (z-score),[19],-0.157
same,glycan array binding signal (z-score),[20],-0.13
same,glycan array binding signal (z-score),[21],-0.191
same,glycan array binding signal (z-score),[22],-0.152
same,glycan array binding signal (z-score),[23],-0.117
same,glycan array binding signal (z-score),[24],-0.194
same,glycan array binding signal (z-score),[25],-0.239
same,glycan array binding signal (z-score),[26],-0.112
same,glycan array binding signal (z-score),[27],-0.089
same,glycan array binding signal (z-score),[28],0.478
same,glycan array binding signal (z-score),[29],0.242
same,glycan array binding signal (z-score),[30],0.195
same,glycan array binding signal (z-score),[31],-0.18
same,glycan array binding signal (z-score),[32],-0.158
same,glycan array binding signal (z-score),[33],-0.228
same,glycan array binding signal (z-score),[34],-0.119
same,glycan array binding signal (z-score),[35],-0.041
same,glycan array binding signal (z-score),[36],-0.095
same,glycan array binding signal (z-score),[37],1.69
same,glycan array binding signal (z-score),[38],-0.202
same,glycan array binding signal (z-score),[39],-0.078
same,glycan array binding signal (z-score),[40],-0.142
same,glycan array binding signal (z-score),[41],-0.175
same,glycan array binding signal (z-score),[42],-0.117
same,glycan array binding signal (z-score),[43],-0.165
same,glycan array binding signal (z-score),[44],-0.205
same,glycan array binding signal (z-score),[45],-0.01
